Reference: PubChem BioAssay AID1745847 (National Center for Advancing Translational Sciences (NCATS), 2022)
Out of some 2,100 compounds screened, about 670 (32%) were called active. Inconclusive means that the source gave no clear call. Such entries were picked first, then a sample of the others. Calls come from the whole dose curve; as a rule, active = well fitted inhibition curve with a large enough effect; inconclusive = small, poorly fitted or top-dose-only effect; inactive = no such curve, though single readings can be large or run the other way. Potencies of inconclusive entries are doubtful fits and often do not repeat.

Assay: CMV-Luciferase Counterscreen for Inhibitors of ATXN expression; note: nearly all actives have a fitted effect of over 55% in size
Details: HEK-293 CMV-luciferase reporter, luminescence, 24 h; series mostly up to 57.5 µM
% is set by controls: 0 for no effect and ±100 for the full control effect; potency is the fitted concentration of half-maximal effect; tags give direction and shape of the fitted curve.

With `Cc1c(C(=O)NCc2ccc(Cl)c(Cl)c2)sc(=O)n1Cc1ccc(S(C)(=O)=O)cc1` as the compound, how does the Potency read?
The Potency was inconclusive: 3.16 µM [inhibitor, partial curve, poor fit].

For `CCCCCn1c(=N)n(CC(O)COc2ccccc2OC)c2ccccc21` (stereo unspecified), which Potency is on record?
The Potency was inconclusive: 3.16 µM [inhibitor, partial curve].

For `N#C/C(=C/c1ccc(Sc2nc3ccccc3[nH]2)o1)c1cccc(F)c1`, which Potency is on record?
The Potency was inconclusive: 3.55 µM [inhibitor, single point].

With `O=C(N/N=C/c1cc([N+](=O)[O-])ccc1O)c1cccc2cc[nH]c12` as the compound, how does the Potency read?
The Potency was active: 2.82 µM.

With `O=C(NC(c1ccccc1)c1c(O)ccc2ccccc12)c1ccccc1Cl` (stereo unspecified) as the compound, how does the Potency read?
Its Potency is inconclusive: 3.55 µM [inhibitor, single point].

Which Potency does the source give for `O=C(N/N=C/c1ccc([N+](=O)[O-])s1)c1ccccc1Br` here?
Its Potency is inconclusive: 7.94 µM [inhibitor, partial curve, poor fit].

For `O=C(N/N=C/c1cc(Br)cc(Br)c1O)c1cccc(N2CCCC2=O)c1`, which Potency is on record?
The Potency was inconclusive: 1.78 µM [inhibitor, partial curve, poor fit].

With `Cc1cccc(/C=C/C(=O)c2ccc([N+](=O)[O-])o2)c1` as the compound, how does the Potency read?
Its Potency is active: 3.55 µM.

With `OCCN1CCN(Cc2cc(Cl)c3cccnc3c2O)CC1` as the compound, how does the Potency read?
The Potency was inconclusive: 20 µM [inhibitor, partial curve, poor fit].

With `Cc1cccn2c(=O)c(C(=O)NC3CC(C)CC(C)(C)C3)c(O)nc12` (stereo unspecified) as the compound, how does the Potency read?
Its Potency is inconclusive: 28.2 µM [inhibitor, single point].

For `COc1ccc(OCCNC(=O)C2(C)CCN2Cc2ccc3ccccc3c2)cc1` (stereo unspecified), which Potency is on record?
The Potency was inconclusive: 39.8 µM [inhibitor, single point].

For `CC(=O)N1c2ccc(S(=O)(=O)N3CCC(C(=O)N4CCN(c5ccc(Cl)cc5)CC4)CC3)cc2CC1C` (stereo unspecified), which Potency is on record?
Its Potency is active: 7.94 µM.

With `Cc1ccc(NC(=O)COc2ccc(Br)cc2CO)cc1S(=O)(=O)N1CCOCC1` as the compound, how does the Potency read?
Its Potency is inconclusive: 31.6 µM [inhibitor, single point].

With `CN1CCN(c2ccccc2NC(=O)c2ccc(-c3ccc(Cl)c(Cl)c3)o2)CC1` as the compound, how does the Potency read?
Its Potency is inconclusive: 28.2 µM [inhibitor, single point].

With `CCOC(=O)c1c(C)nn(-c2ccc(NC(=O)c3cccs3)cc2)c1C` as the compound, how does the Potency read?
Its Potency is inconclusive: 31.6 µM [inhibitor, single point].

Which activity change, negative = inhibition does the source give for `O=C(Nc1cccnc1)C1Cc2c(-c3ccc4c(c3)OCO4)ccnc2O1` (stereo unspecified) here?
The activity change, negative = inhibition was inactive: -23.6% [at 11.4 µM].

Which Potency does the source give for `CC(=O)Oc1ccc(Nc2ccccc2)cc1` here?
Its Potency is inconclusive: 7.08 µM [inhibitor, single point].

Which Potency does the source give for `CCOc1ccc(C(=O)Nc2ccc(Cc3ccncc3)cc2)cc1Br` here?
The Potency was inconclusive: 31.6 µM [inhibitor, single point].

For `CCCC(=O)Nc1ccc2nc(SCC(=O)N3CCCC3)sc2c1`, which Potency is on record?
The Potency was “inactive”.

Which Potency does the source give for `COc1ccc(Cl)cc1NC(=O)Nc1cccc([N+](=O)[O-])c1C` here?
The Potency was inconclusive: 3.98 µM [inhibitor, partial curve, poor fit].

Which Potency does the source give for `O=c1c2ccccc2sc2c(CO)ccc(NCCN3CCCCC3)c12` here?
Its Potency is active: 22.4 µM.

Which Potency does the source give for `OC(c1ccccn1)(c1ccccn1)c1ccccn1` here?
Its Potency is inconclusive: 3.55 µM [inhibitor, partial curve, poor fit].

For `COc1ccc(Cn2c(-c3ccc(C)cc3)c[n+]3ccccc23)cc1`, which Potency is on record?
The Potency was active: 1 µM.

With `O=C(CSc1nc(Nc2ccccc2)nc(N2CCOCC2)n1)Nc1cc(Cl)ccc1O` as the compound, how does the Potency read?
The Potency was inconclusive: 31.6 µM [inhibitor, single point].

With `CCc1ccc(C(=O)NNC(=O)C2CCN(c3ncnc4sc(C)c(C)c34)CC2)cc1` as the compound, how does the Potency read?
The Potency was inconclusive: 3.98 µM [inhibitor, single point].

With `CCCCN1C(=O)/C(=C2/Sc3ccccc3N2C)S/C1=N\c1ncn[nH]1` as the compound, how does the Potency read?
Its Potency is “inactive”.

Which Potency does the source give for `O=S(=O)(Nc1cccc2cccnc12)c1ccccc1` here?
Its Potency is inconclusive: 1.58 µM [inhibitor, single point].

With `COc1cc(NC(=O)N2CCc3nc(Nc4cc(Cl)cc(Cl)c4)ncc3C2)cc(OC)c1OC` as the compound, how does the Potency read?
The Potency was inconclusive: 3.55 µM [inhibitor, partial curve, poor fit].

With `Cc1cc([N+](=O)[O-])nn1Cc1ccc(C(=O)N/N=C/c2ccc(O)cc2O)cc1` as the compound, how does the Potency read?
The Potency was inconclusive: 3.55 µM [inhibitor, full curve, poor fit].

With `COc1ccc(/C=C/C(=O)c2cc3cccc(OC)c3oc2=O)cc1` as the compound, how does the Potency read?
The Potency was “inactive”.

Which Potency does the source give for `Cc1ccc(C(=O)N/C(=C\c2ccc(-c3ccc(Cl)cc3)o2)C(=O)NCCCN(C)C)cc1` here?
Its Potency is “inactive”.

For `CC(NC(=O)Nc1cccc([N+](=O)[O-])c1)c1ccc2c(c1)OCO2` (stereo unspecified), which Potency is on record?
Its Potency is inconclusive: 6.31 µM [inhibitor, single point].

Which Potency does the source give for `O=S(=O)(c1ccc(F)cc1)c1snnc1-c1ccccc1` here?
Its Potency is inconclusive: 39.8 µM [inhibitor, single point].

Which Potency does the source give for `C/C(=N\NC(=O)c1ccc(CN2CCc3ccccc3C2)cc1)c1ccccc1O` here?
The Potency was inconclusive: 0.891 µM [inhibitor, full curve, poor fit].

Which Potency does the source give for `COc1ccc2nc(C)cc(Nc3ccc(N4CCOCC4)cc3)c2c1` here?
The Potency was inconclusive: 28.2 µM [inhibitor, single point].

Which Potency does the source give for `COc1ccc(-n2nc(C(=O)NCC(=O)Nc3cccc(Cl)c3)c3ccccc3c2=O)cc1OC` here?
Its Potency is “inactive”.

With `COc1ccc(Cn2c(O)c(/C=N/NC(=O)c3cccnc3)c3ccccc3c2=O)cc1` as the compound, how does the Potency read?
Its Potency is inconclusive: 12.6 µM [inhibitor, partial curve, poor fit].

Which activity change, negative = inhibition does the source give for `NC(Cc1ccc(F)cc1)c1csc(Nc2cc(NCc3ccco3)ncn2)n1` (stereo unspecified) here?
The activity change, negative = inhibition was inactive: 0.881% [at 11.4 µM].

With `Cc1ccc(CN2CC(C(=O)Nc3ncc(C)s3)CC2=O)cc1` (stereo unspecified) as the compound, how does the activity change, negative = inhibition read?
Its activity change, negative = inhibition is inactive: 242% [at 11.4 µM].

With `N/C(=N\NC(=O)c1sccc1OCc1ccc(Cl)cc1Cl)c1ccccn1` as the compound, how does the Potency read?
Its Potency is inconclusive: 14.1 µM [inhibitor, partial curve, poor fit].

With `CCc1nc2c(OCc3ccc(Cl)cc3)cccn2c1N(C=O)Cc1ccc(OC)cc1` as the compound, how does the Potency read?
The Potency was inconclusive: 35.5 µM [inhibitor, single point].
